In all, about 33,000 sequences were measured (“E-score (-0.5 to 0.5)”: median about -0.054, highest 2% from about 0.39 on). The list shows a part of the results.
These sequences were tested against Ylr278c (UniProt Q05854) (assay: PBM E-score (8-mer binding enrichment) (E-score (-0.5 to 0.5)); higher = stronger / more preferred TF binding; most listed sequences are background and not binding sites). Conditions: protein concentration: 200 nM; construct: GST-DNA-binding domain.
Method in brief: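 The E-score, a modified Wilcoxon-Mann-Whitney statistic, was computed by the Universal PBM Analysis Suite for every ungapped eight-base word pooled with its reverse complement. Scans behind it were normalised with masliner after bound GST-tagged yeast transcription factors were detected with fluorescent anti-GST. The proteins, at about 100-200 nM, had been applied to universal all-10-mer Agilent arrays made double-stranded by primer extension.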

Point of comparison: AAGACTTA, “PBM E-score” value -0.366. Against it:
- AACCATGC — higher, 0.0626
- ACGGCCAG — higher, 0.0757
- AAAGTCAA — higher, -0.106
- GGCCCAAC — higher, -0.1
- GCTCTGAC — higher, -0.29
- ACCACATG — higher, -0.215
- CCGGAACA — higher, 0.442
- TAAATGAA — higher, -0.141
- ACTTAGGC — higher, -0.00672
- ACCCCGTC — higher, 0.253
- CTGCCAAC — higher, -0.174
- GATCACAC — higher, -0.0572
- AGGGTTTC — higher, -0.012
- GCTGTCAC — higher, -0.182
- CGGTTCCA — higher, 0.13
- CACTCTAG — higher, -0.163
- CCCGGAGG — higher, 0.439
- AGAACGGG — higher, 0.0721
- CTGAAAAA — higher, -0.0884
- CCTTATTC — higher, -0.234
- ACAACGTA — higher, -0.21
- ACACCGCC — higher, 0.199
- AAATCAAT — higher, -0.0293
- CGGCCCCG — higher, 0.297
- AGGGTTAC — higher, -0.236
- CTATCTAA — higher, -0.0478
- GCAGGCAA — higher, -0.0214
- AGTCCAGG — higher, -0.138
- CAACCGCG — higher, 0.208
- AACAAGAT — higher, 0.0527
- CGATGCAC — higher, -0.0843
- ACAGGTAC — higher, -0.123
- TATCAGGA — higher, -0.131
- CAAACATC — higher, 0.127
- AAATAGTT — higher, 0.0407
- AACGCGCC — higher, 0.0465
- GCGGACGC — higher, 0.177
- CCCATTGC — higher, -0.0499
- CTCGACTC — higher, -0.0517
- GAAATTCC — higher, 0.348
- ATGGTAAG — higher, -0.203
- ACCTACAA — higher, -0.178
- CACCCTAA — higher, -0.147
- GCGCTCAA — higher, 0.0181
- GGATGGAC — higher, 0.0145
- CATTCTGA — higher, -0.0107
- ACAGTTCA — higher, -0.215
- ATCACTGC — higher, -0.0314
- CGCCTCCA — higher, 0.0143
- GAACGATC — higher, 0.041
- TCACTGGA — higher, -0.0356
- CTACCCGC — higher, 0.0419
- CCTCCCGA — higher, 0.0701
- GTCTGTAA — higher, 0.125
- CACGGCGG — higher, 0.199
- CTATACGA — higher, -0.142
- ACCTATCA — higher, 0.00429
- ACCTAGTA — higher, -0.244
- AAGATAAG — higher, -0.167
- TTCTGCAA — higher, -0.0696
- ATATGCTC — higher, 0.0559
- ATACGCAT — higher, -0.00802
- CCTGGTCA — higher, -0.339
- AGATCGTG — higher, -0.188
- AAGGCCCA — higher, -0.183
- CACGCATG — higher, -0.16
- AATCATCT — higher, 0.0277
- CCCCCAGC — higher, -0.226
- CATACCGA — higher, 0.056
- AGACCTGC — higher, -0.33
- AACCGAAA — higher, 0.0213
- AGTCTGCC — higher, -0.222
- GGTCCCAA — higher, -0.163
- CGACTGGA — higher, -0.012
- AAGCAGGA — higher, 0.0618
- CCATATGG — higher, -0.116
- GGCCTTAA — higher, -0.0388
- TCTGCCAA — higher, -0.313
- GGGCTGTA — higher, -0.0874
- TACCGGTA — higher, 0.246
- AGACGATA — higher, -0.0594
- AATGCGGA — higher, 0.396
- CTGAGTCA — higher, -0.19
- AACCAAGT — higher, -0.134
- ATGTGACC — higher, -0.00885
- ATGAGAGA — higher, -0.154
- AGCTAGAT — higher, -0.213
- ATAGGAGA — higher, -0.226
- GGCCGTAA — higher, 0.209
- CCCCTTGA — higher, -0.0701
- TAGGTTCA — higher, -0.0318
- ATCCACAC — higher, -0.0734
- TACTTCCA — higher, -0.0154

Reference: the supplement of paper PMC3334620
